Measurements taken from ChEMBL document CHEMBL1201862, “PubChem BioAssay data set” (2004).
Calls of active or inactive are those of the source. Cut-off read from the data, not from the text of the source: active = GI50 up to about 1.1 µM and inactive = higher.

Columns and labels:
Test in all cases: cells
Assay type in all cases: functional
SN12K1 = details: Homo sapiens
P388/ADR = details: Mus musculus
P388 = details: Mus musculus

SMILES: COc1c(O)cc2c(c1OC)-c1ccc(OC)c(=O)cc1[C@@H](NC(C)=O)CC2 [3-DESMETHYLCOLCHICIN]
- GI50 (SN12K1): active: < 31.2 nM
- GI50 (P388/ADR): inactive: 9530 nM
- GI50 (P388): active: < 31.2 nM
